Test results taken from PubChem BioAssay AID1466 (National Center for Advancing Translational Sciences (NCATS), 2008).
Among all 200,000 compounds or so, about 10 (0.005%) were called active. Inconclusive results, whose numbers are uncertain, are shown with a selection of clear calls. Calls come from the whole dose curve; as a rule, active = well fitted inhibition curve with a large enough effect; inconclusive = small, poorly fitted or top-dose-only effect, or effect the other way, or another doubt; inactive = no such curve, though single readings can be large or run the other way. Potencies of inconclusive entries are left out as doubtful fits.

target: Lysosomal alpha-glucosidase (Homo sapiens) (UniProt P10253); test: qHTS Assay for Inhibitors of Human alpha-Glucosidase as a Potential Chaperone Treatment of Pompe Disease; details: purified human GAA, 4-MU-alpha-glucoside fluorescence; activity change, negative = inhibition: at 76.9 µM (top of the series) unless noted;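 for activity change, negative = inhibition: plate controls were uninhibited enzyme wells for no effect and no-enzyme background for full effect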
Procedure, shortened: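 Activity normalized between no-enzyme (basal) and enzyme-only wells. Conditions: 4 nM human enzyme, 400 uM fluorogenic substrate, citrate/phosphate pH 5.0 with Tween-20, 20 min room temperature, compounds up to 77 uM.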
Potency is the fitted concentration of half-maximal effect; tags give direction and shape of the fitted curve.

Row | Structure (SMILES) | Potency | activity change, negative = inhibition
1 | O=C(/C=C/c1ccccc1)N1CCC[C@H]1CO | inconclusive [inhibitor, single point] | –
2 | Cc1cccc(C)c1NC(=O)C1CCCN1C(=O)OC(C)(C)C (stereo unspecified) | – | inactive: 1.51%
3 | CC(=O)Nc1ccc(S(=O)(=O)Nc2nc3ccccc3nc2Nc2ccc(S(N)(=O)=O)cc2)cc1 | inconclusive [activator, single point] | –
4 | CCOC(=O)C1(CC2CC2)CCN(Cc2ccc(O)c(Cl)c2)CC1 | inconclusive [inhibitor, single point] | –
5 | NCCOc1cnn(-c2ccccc2Cl)c(=O)c1Cl | inconclusive [inhibitor, single point] | –
6 | O=C(Nc1nc2ccc(Oc3ccccc3)cc2s1)c1cc([N+](=O)[O-])ccc1N1CCOCC1 | inconclusive [inhibitor, single point] | –
7 | CCOC(=O)c1sc2nc(N3CCOCC3)c3c(c2c1N)CCC3 | inconclusive [activator, single point] | –
8 | CC(C)c1ccc(CNc2ccc(N3CCOCC3)cc2)cc1 | – | inactive: -5.91%
9 | Cc1cccc(Nc2nc3c(c(=O)n(C)c(=O)n3C)n2Cc2ccccc2)c1 | inconclusive [inhibitor, single point] | –
10 | O=C(NNc1nc2c(F)cccc2s1)C1COc2ccccc2O1 (stereo unspecified) | – | inactive: -16.7%
11 | COc1cccc(C2CC(=O)N3CN(c4cccc(Cl)c4C)CSC3=C2C#N)c1OC (stereo unspecified) | inconclusive [inhibitor, partial curve] | –
12 | COc1cccc(C(=O)Nc2ccc(Cl)c(C(F)(F)F)c2)c1 | inconclusive [inhibitor, single point] | –
13 | COc1ccc(C(=O)COc2ccc(NC(C)=O)cc2)cc1 | – | inconclusive: -17.5% [inhibitor]
14 | OCCN(CCO)c1ccc2ccccc2c1 | inconclusive [activator, partial curve] | –
15 | Cc1nc2ccccc2c(-c2ccccc2)c1C(=O)c1ccccc1 | inconclusive [inhibitor, full curve, poor fit] | –
16 | Cc1cc(C(=O)COc2ncnc3sccc23)c(C)n1C | inconclusive [inhibitor, single point] | –
17 | Cc1nn(C)c(C)c1S(=O)(=O)N1CCC(C(=O)NC2CCCc3ccccc32)CC1 (stereo unspecified) | inconclusive [inhibitor, partial curve, poor fit] | –
18 | COc1ccc(C2=NO[C@@H]3C(=O)N(C4CCCCC4)C(=O)[C@H]23)cc1OC | inconclusive [activator, single point] | –
19 | COc1ccc([N+](=O)[O-])cc1/C=N/NC(=O)/C(=C\c1cccs1)NC(=O)c1ccccc1 | – | inactive: -1.64%
20 | O=C(CCSc1ccc(Cl)c(Cl)c1)NC12CC3CC(CC(C3)C1)C2 | – | inconclusive: -18.3% [inhibitor]
21 | CCCCc1nnc(NC(=O)C(C)Sc2nc(O)c(Cc3ccccc3)c(=O)[nH]2)s1 (stereo unspecified) | inconclusive [inhibitor, full curve] | –

Row | Structure (SMILES) | Potency | activity change, negative = inhibition
22 | Nc1c(-c2ccccc2)nc(Cl)nc1-c1ccccc1 | – | inconclusive: 36.3% [activator]
23 | CSc1nc(-c2ccccc2)c(C#N)c(=O)n1C | – | inconclusive: 16.8% [activator]
24 | O=[N+]([O-])c1cccc(-c2nc(Oc3ccc(Cl)cc3)c3ccccc3n2)c1 | inconclusive [inhibitor, full curve] | –
25 | C(=C\c1ccco1)/C1=NN(c2ccccc2)C(c2ccco2)C1 (stereo unspecified) | inconclusive [activator, partial curve] | –
26 | CCOC(=O)C1CCN(c2nc3cc(OC)ccc3cc2C#N)CC1 | inconclusive [activator, single point] | –
27 | O=[N+]([O-])c1cc(S(=O)(=O)N2CCCC2)ccc1NCCc1ccccc1 | – | inactive: -0.0371%
28 | Cn1ncc([N+](=O)[O-])c1C(=O)NCc1ccccc1 | inconclusive [inhibitor, partial curve, poor fit] | –
29 | CC1CCCN(c2oc(-c3cccc4ccccc34)nc2C#N)C1 (stereo unspecified) | inconclusive [activator, partial curve] | –
30 | CCN1CCN(C(=O)c2cc3c(=O)n4ccccc4nc3n2Cc2ccccc2)CC1 | inconclusive [activator, partial curve] | –
31 | CC(=NCCc1c(C)[nH]c2ccc(OC(F)(F)F)cc12)C1=C(O)CC(c2ccccc2)CC1=O (stereo unspecified) | inconclusive [inhibitor, single point] | –
32 | CCOc1c2ccc(C(=O)NCC34CC5CC(CC(C5)C3)C4)cc2nn1CC | – | inconclusive: 19.7% [activator]
33 | CCN(CC)CCN(Cc1cc2cc3c(cc2[nH]c1=O)OCO3)C(=S)NCC1CCCO1 (stereo unspecified) | inconclusive [activator, partial curve] | –
34 | Cc1nc(-c2cc(C#N)c(Sc3ccc(Cl)cc3Cl)nc2C)cs1 | inconclusive [inhibitor, single point] | –
35 | O=C(CSc1ccc(F)cc1)N1CCN(S(=O)(=O)c2ccccc2)CC1 | inconclusive [inhibitor, single point] | –
36 | Cc1ccc2c(c1)nnn2C1CCN(S(=O)(=O)c2ccc(C(=O)O)cc2)CC1 | inconclusive [inhibitor, single point] | –
37 | COc1ccc(/C(N)=N/OC(=O)c2ccc([N+](=O)[O-])c(C)c2)cc1OC | – | inconclusive: 16.9% [activator]
38 | COC(=O)c1ccc(COC(=O)c2ccc(-n3cnnn3)cc2)o1 | inconclusive [inhibitor, partial curve, poor fit] | –
39 | COC(=O)c1cn(C)c2ccc(S(=O)(=O)N3CC(C)CC(C)C3)cc2c1=O (stereo unspecified) | inconclusive [inhibitor, single point] | –
40 | CC1CCCC/C1=N/Nc1ccc([N+](=O)[O-])cc1[N+](=O)[O-] (stereo unspecified) | inconclusive [inhibitor, single point] | –
41 | CN(C)S(=O)(=O)c1cccc(NC(=O)c2cc3c(=O)n4ccccc4nc3s2)c1 | inconclusive [activator, single point] | –
